This assay deals with T1, recombinant ovalbumin (OVA) (Gallus gallus (Chicken), UniProt P01012 1-386).
T1 sequence: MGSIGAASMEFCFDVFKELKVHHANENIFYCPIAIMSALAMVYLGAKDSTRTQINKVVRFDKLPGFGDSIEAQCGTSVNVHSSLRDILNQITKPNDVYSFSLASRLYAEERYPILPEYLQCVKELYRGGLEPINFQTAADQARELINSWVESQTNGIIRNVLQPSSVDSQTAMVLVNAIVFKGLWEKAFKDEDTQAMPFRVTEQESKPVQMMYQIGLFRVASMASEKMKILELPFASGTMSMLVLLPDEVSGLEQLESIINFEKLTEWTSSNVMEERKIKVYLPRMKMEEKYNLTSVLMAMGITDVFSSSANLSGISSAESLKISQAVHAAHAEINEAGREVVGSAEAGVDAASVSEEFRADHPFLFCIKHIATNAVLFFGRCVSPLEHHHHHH
The assay is described as follows: ELISA, plate coated with recombinant protein at 1 µg/mL, serial dilution of biotin-conjugated FcγR, streptavidin-HRP. Background: In an ELISA, binding on a coated surface is turned into a signal by an enzyme label.

From patent US20190321456A1 (NATIONAL HEALTH RESEARCH INSTITUTES, published 2019) come the findings set out here.

B1: biotin-conjugated recombinant FcγRIIIa-V158 (receptor)
chain: not shown
notes: The V158 allotype name implies the human receptor
As for B1, the binding result is recorded as “no binding”.
